Experimental data from the supplement of paper PMC3334620.
Over roughly 33,000 sequences, “E-score (-0.5 to 0.5)” has its median near -0.011; the highest 2% begin near 0.28. The list shows a part of the results.

Each sequence was assayed against T1, Gcr1 (UniProt P07261) (assay: PBM E-score (8-mer binding enrichment) (E-score (-0.5 to 0.5)); higher = stronger / more preferred TF binding; most listed sequences are background and not binding sites). Settings: protein concentration: 100 nM; construct: GST-full length.
T1 sequence: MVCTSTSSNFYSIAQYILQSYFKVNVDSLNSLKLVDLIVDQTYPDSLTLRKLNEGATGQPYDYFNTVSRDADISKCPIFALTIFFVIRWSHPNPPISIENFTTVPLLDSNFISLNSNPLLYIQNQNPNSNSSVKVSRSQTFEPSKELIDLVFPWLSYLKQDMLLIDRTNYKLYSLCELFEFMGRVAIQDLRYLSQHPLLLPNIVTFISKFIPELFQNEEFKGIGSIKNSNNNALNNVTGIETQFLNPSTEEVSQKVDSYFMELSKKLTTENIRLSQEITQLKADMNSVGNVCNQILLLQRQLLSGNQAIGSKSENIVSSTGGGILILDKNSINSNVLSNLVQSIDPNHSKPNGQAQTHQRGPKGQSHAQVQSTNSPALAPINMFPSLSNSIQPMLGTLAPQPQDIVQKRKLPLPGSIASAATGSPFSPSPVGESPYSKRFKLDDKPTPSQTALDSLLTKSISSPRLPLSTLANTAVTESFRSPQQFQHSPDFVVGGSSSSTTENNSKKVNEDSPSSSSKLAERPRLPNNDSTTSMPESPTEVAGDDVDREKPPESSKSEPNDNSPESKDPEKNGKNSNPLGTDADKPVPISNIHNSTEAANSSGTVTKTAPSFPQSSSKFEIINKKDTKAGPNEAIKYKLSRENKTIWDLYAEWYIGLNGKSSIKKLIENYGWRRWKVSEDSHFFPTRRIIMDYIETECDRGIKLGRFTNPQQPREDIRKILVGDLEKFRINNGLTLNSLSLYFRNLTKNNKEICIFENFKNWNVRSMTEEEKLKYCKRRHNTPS
Summary of the method: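 Bound GST-tagged yeast transcription factors, applied at about 100-200 nM to double-stranded universal all-10-mer Agilent arrays, were detected with fluorescent anti-GST. Scans were normalised with masliner. A modified Wilcoxon-Mann-Whitney statistic, the E-score, was assigned to each ungapped eight-base word pooled with its reverse complement by the Universal PBM Analysis Suite.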

Sequence	PBM E-score
AAATGGAT	-0.0627
GCGCCAGC	-0.0858
CACAGTCA	-0.245
ACGTACCC	0.0373
CATTTACC	0.00933
AGCATGAG	-0.0444
CGTTTCAG	0.0761
GTGTGGGA	0.0285
CGAAAACG	0.0851
CATTCATC	-0.213
TCAGCGGA	-0.0105
CGTCAAAG	-0.0696
CCTTATAA	-0.029
AATATGTG	0.234
AATGATCT	0.017
GCCTTATA	0.117
CGGATGGA	0.0467
ACAGTACC	-0.206
ATCGAACC	-0.0413
ACAACTCG	0.0972
AGGATTAT	-0.099
AGCATACC	-0.0543
CCAAAAGC	-0.101
CAGGCATC	0.211
ACCGCGCG	-0.0975

Sequence	PBM E-score
TATCCTGA	0.156
ATAAGACG	0.192
ACAACTGG	0.169
TTCTAGAA	0.239
ACGGGTCC	0.151
ATTACCAG	0.0353
ACATCTCA	-0.0704
CCCTCCAC	-0.286
CAGCAGGG	-0.0402
CGTCACAC	-0.147
CGTGACTC	-0.205
ATCAAAAA	0.216
GATATCCA	-0.0382
TACAAAAA	0.0752
AACATTAG	0.0386
GACGTTGA	-0.133
AGCAGGCG	-0.085
CGGGCCGC	0.0123
GCACAGGC	-0.165
CAGACGGC	-0.112
CTCACCAG	-0.0314
ACCAAGTC	0.0379
TGCCGCAA	0.0502
CGGTGCAA	-0.117
ACGCATGA	-0.236

Sequence	PBM E-score
CAATTCAC	-0.262
TGAGCACA	-0.235
ACGTACCT	-0.278
CCTCACGC	0.156
AATTCCGT	0.0556
CCCCGACA	-0.229
AGAAACTA	0.0796
CTCAGCTA	-0.162
AGGAACAT	-0.151
TATGAGAA	0.13
CTAACTGA	-0.0279
AGCTTTTA	0.0211
CGGGCTAC	0.217
CAAGTAGC	0.00316
ATAATTCG	-0.00046
CGTCCACG	-0.0949
GATCAATA	-0.177
CTCTGGGA	0.0982
AGTGGGCA	0.0993
AGTCCACC	-0.261
AAGAAGAG	0.237
GTGGTCAA	-0.0869
GAAATACA	0.2
CGAGATAC	0.171
ACGCGAAC	0.0396

Sequence	PBM E-score
GCGACGCA	-0.0777
TGTACTAA	-0.0353
ACCATGGA	-0.0985
CGTGTCTA	-0.0143
GCGTGGAC	-0.0157
GCAAATAC	0.0493
AATGCTCT	-0.112
CCCTCCTA	-0.0494
ATATCGAG	-0.0166
ACGAAGCA	-0.12
ATTATCGA	0.0528
GGGGTCGA	-0.11
CATCATAC	0.173
GACTGAGC	-0.0985
ACAGTTGG	-0.0514
AAGCATAG	-0.301
AATGTTTG	-0.105
GCCTAGTA	0.161
AGAGTTAC	-0.161
CATTATAA	0.128
GATGGAAC	-0.0256
AAAAGAGT	0.0747
AGAGAGGC	0.0259
CAGCCAGA	0.0488
GAAAGCTC	-0.314

Sequence	PBM E-score
CGTATGCA	-0.105
CCCATACG	0.14
ACCGATTG	-0.157
TAGACAGA	0.0147
AACATGCT	-0.122
GTAACGAA	-0.0989
CAATATTG	-0.225
AGATTCAA	-0.107
CGGGGCCC	0.219
AATTGTCA	0.0189
TGCTCAAA	0.0724
CCGCGGTA	0.167
CAACGAGA	0.121
GCTCTTAC	-0.298
CACCACGC	-0.131
CAACGAGG	-0.141
CATAAGCC	-0.217
CTGGCATA	0.0454
TCTAGTCA	0.0316
GAGGGTCA	-0.243
GTACATGA	0.0783
AAGAAATT	0.0237
GACCTACA	-0.065
CCAATACG	-0.0325
GACACGGA	3e-05

Sequence	PBM E-score
AGAACGCT	-0.217
AAGCGTGG	-0.0647
GATAGGAA	0.208
GGATTACC	-0.127
TGTGACAA	-0.161
ACTTCAGC	0.0397
AGGATCAG	-0.148
GAGATACA	0.101
CTGCAATA	0.133
TTCCAGAA	0.287
CTTACCCA	0.0383
CATTGTAC	-0.1
CGTATCAC	0.0619
AAAACGGA	0.0988
ATCCTAAG	0.138
ACAGCAAC	0.106
GTTTCCTA	0.00725
CAGCGGGG	-0.11
AAAGACGT	0.0548
CATGGTAG	-0.205
GATACAAA	0.021
GGATATAA	0.162
CCTACCCA	-0.106
CATTGGCC	-0.116
ATGGTCGC	-0.023

Sequence	PBM E-score
GATTCGGA	0.153
ACGTGTCG	-0.218
GCTAGGAC	-0.115
TCCCTCAA	0.00435
ACTTTTAG	0.0207
TGTTAACA	-0.0311
CATCTAGA	0.00981
GTGCACCA	-0.154
ACATAAGC	0.0671
CCATGATA	-0.0729
AGAGACCT	-0.153
ATACTCAG	0.0334
CAGTTGAG	-0.0438
ACACACAT	-0.0321
GACTCTCA	-0.0371
GCCTCGGA	-0.159
AATCACAT	-0.0824
AAGTACTT	0.156
AGGTCGTC	-0.181
TACGTCTA	0.143
CAGATAGC	0.0723
GGCCGGGA	-0.0727
